# From the BET-seq Pho4 binding data (Le et al. 2018)
# The list shows a part of the results. These are noisy estimates, calculated here from bound and input reads.
# Target: T1, Pho4 (S. cerevisiae) (UniProt P07270)
# T1 sequence: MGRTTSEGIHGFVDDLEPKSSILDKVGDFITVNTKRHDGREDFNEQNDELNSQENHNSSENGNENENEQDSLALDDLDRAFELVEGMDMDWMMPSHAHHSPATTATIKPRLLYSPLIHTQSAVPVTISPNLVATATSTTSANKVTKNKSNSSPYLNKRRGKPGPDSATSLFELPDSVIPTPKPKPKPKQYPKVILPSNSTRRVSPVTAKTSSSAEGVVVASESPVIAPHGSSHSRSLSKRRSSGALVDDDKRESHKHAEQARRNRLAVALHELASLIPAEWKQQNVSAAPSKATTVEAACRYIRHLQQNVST
# Assay: relative binding free energy (BET-seq); higher = weaker binding
# Settings: reference: library average
row,Sequence,relative binding free energy
1,CAGTTCACGTGAATGG,0.35 kcal/mol
2,TGTGACACGTGAAGTT,0.22 kcal/mol
3,GGTTGCACGTGAGCTA,0.16 kcal/mol
4,GGCAGCACGTGTGGTA,-0.02 kcal/mol
5,CTTATCACGTGTGTTG,0.15 kcal/mol
6,AGTGTCACGTGAGAAG,0.31 kcal/mol
7,GGGCGCACGTGTGTTG,-0.03 kcal/mol
8,TTGGTCACGTGGGCGT,0.02 kcal/mol
9,CTTGACACGTGAGGAT,0.23 kcal/mol
10,CGCGACACGTGTGTGG,0.04 kcal/mol
11,TAGAACACGTGTAAGT,0.21 kcal/mol
12,AAGTTCACGTGTGAAT,0.25 kcal/mol
13,TGGATCACGTGTAATT,0.14 kcal/mol
14,CAGGGCACGTGATGTG,-0.1 kcal/mol
15,AGTTCCACGTGAGGGG,0.27 kcal/mol
16,GTTATCACGTGCGGAG,0.18 kcal/mol
17,TCTTTCACGTGAGGGC,0.43 kcal/mol
18,CAGTGCACGTGAAGGG,0.23 kcal/mol
19,CTCGTCACGTGGGCGG,0.04 kcal/mol
20,CTTGGCACGTGTGGAT,-0.16 kcal/mol
21,TCGGACACGTGGTAGT,0.04 kcal/mol
22,GTGCCCACGTGTTGGG,-0.06 kcal/mol
23,TAAAGCACGTGGTGCT,-0.13 kcal/mol
24,TGCAGCACGTGGCGTA,-0.1 kcal/mol
25,GTTAACACGTGGTATA,0.01 kcal/mol

row,Sequence,relative binding free energy
1,TCTTTCACGTGATGCG,0.25 kcal/mol
2,TTCTGCACGTGCAGGG,-0.12 kcal/mol
3,TTATGCACGTGTATTG,-0.03 kcal/mol
4,GCGTGCACGTGAAGTA,0.3 kcal/mol
5,TTATGCACGTGTGCTG,-0.05 kcal/mol
6,CTGGGCACGTGGGCTG,-0.35 kcal/mol
7,AAAGACACGTGGCGTT,0.08 kcal/mol
8,TAGCTCACGTGGGCTT,0.19 kcal/mol
9,GGTGGCACGTGATCTG,-0.08 kcal/mol
10,GTATGCACGTGCCGTG,0 kcal/mol
11,GGTTCCACGTGGTTTT,0.12 kcal/mol
12,CTTGTCACGTGGGGTG,-0.05 kcal/mol
13,GTGAACACGTGAAAGT,0.32 kcal/mol
14,TTGAACACGTGGAAGG,0.01 kcal/mol
15,ATGTGCACGTGGCGTG,-0.13 kcal/mol
16,GGCTCCACGTGTAGGG,0.02 kcal/mol
17,GATGGCACGTGGTATT,-0.1 kcal/mol
18,TGATTCACGTGAGCGG,0.24 kcal/mol
19,GGTTTCACGTGGCGAT,0.28 kcal/mol
20,TATGACACGTGGTAGG,-0.02 kcal/mol
21,TAGTGCACGTGAATGC,0.23 kcal/mol
22,ATAGTCACGTGATTTG,0.16 kcal/mol
23,AAGTACACGTGGGTGC,-0.1 kcal/mol
24,TGTAGCACGTGTCTTG,-0.01 kcal/mol
25,TTTGACACGTGTGTGA,0 kcal/mol

row,Sequence,relative binding free energy
1,CATGGCACGTGGAATG,-0.08 kcal/mol
2,ATTTGCACGTGTGTAC,0.05 kcal/mol
3,TGCTGCACGTGTTGTG,-0.08 kcal/mol
4,GTAATCACGTGTGGTC,0.46 kcal/mol
5,CGATGCACGTGTAGGC,0.12 kcal/mol
6,ATGTCCACGTGGAGGT,-0.09 kcal/mol
7,CGGTTCACGTGGGGTT,0.16 kcal/mol
8,AACGTCACGTGCGGTT,0.15 kcal/mol
9,TGGAGCACGTGTATTA,-0.05 kcal/mol
10,TGGAGCACGTGTGGAC,-0.07 kcal/mol
11,TGGATCACGTGAAAGG,0.46 kcal/mol
12,ATAAGCACGTGGGAGG,-0.21 kcal/mol
13,TTTGGCACGTGTGTCT,-0.05 kcal/mol
14,TGAGGCACGTGTCATT,-0.03 kcal/mol
15,TGTGTCACGTGACGGC,0.33 kcal/mol
16,CTAGGCACGTGGGATG,-0.29 kcal/mol
17,AAATGCACGTGGAGGA,0.03 kcal/mol
18,GGGCGCACGTGGTCGA,0.05 kcal/mol
19,AAGAACACGTGTGTAT,0.15 kcal/mol
20,TTAGGCACGTGTGCGA,-0.13 kcal/mol
21,AGGGGCACGTGGGCGG,-0.21 kcal/mol
22,AGGGTCACGTGGGCAG,-0.01 kcal/mol
23,CGGGGCACGTGTTTAG,-0.14 kcal/mol
24,AGGATCACGTGGGCGA,-0.01 kcal/mol
25,GAGTGCACGTGAGTTT,0.45 kcal/mol

row,Sequence,relative binding free energy
1,AGAGGCACGTGCAGTA,-0.15 kcal/mol
2,ATCTGCACGTGTTTAA,-0.06 kcal/mol
3,TGGCACACGTGTTCGG,0 kcal/mol
4,TGGGACACGTGGCCAG,-0.05 kcal/mol
5,GGTTGCACGTGATGTC,-0.01 kcal/mol
6,TGTTCCACGTGCTTGG,-0.11 kcal/mol
7,GTTTTCACGTGTCGCT,0.33 kcal/mol
8,ATGTGCACGTGGCCTT,-0.19 kcal/mol
9,TTGCCCACGTGGTGTT,-0.18 kcal/mol
10,TGTGTCACGTGCGCGA,-0.03 kcal/mol
11,TTATTCACGTGCTTTT,0.06 kcal/mol
12,TACGCCACGTGTTGGT,0 kcal/mol
13,CGGTTCACGTGCGGGG,0.3 kcal/mol
14,TAGGACACGTGATGCG,0.04 kcal/mol
15,CGGATCACGTGAATTG,0.46 kcal/mol
16,GAATCCACGTGGTTTT,0.14 kcal/mol
17,GGATGCACGTGGGAAA,0 kcal/mol
18,GTGGGCACGTGGGTTC,-0.12 kcal/mol
19,ATCATCACGTGGGGGG,0.01 kcal/mol
20,AGTGGCACGTGAGGTA,0.08 kcal/mol
21,GGTCGCACGTGCAGTG,0.11 kcal/mol
22,GGGTACACGTGGGATG,-0.03 kcal/mol
23,TTGGACACGTGTATCG,0.06 kcal/mol
24,GGAGGCACGTGAGGCC,0.29 kcal/mol
25,GAGGGCACGTGTGAAT,0.01 kcal/mol

row,Sequence,relative binding free energy
1,GGGGTCACGTGTTCGC,0.18 kcal/mol
2,TTAATCACGTGACGTA,0.23 kcal/mol
3,TAACGCACGTGGTATG,-0.15 kcal/mol
4,AGGGACACGTGGGAGT,-0.01 kcal/mol
5,TCGTTCACGTGTAGAT,0.4 kcal/mol
6,TCTTTCACGTGGCGTT,0.15 kcal/mol
7,AGGGGCACGTGTGTAT,-0.12 kcal/mol
8,AAAAGCACGTGGAGGG,-0.18 kcal/mol
9,GGGATCACGTGTTGTA,0.19 kcal/mol
10,GGTCGCACGTGGTAAA,0.09 kcal/mol
11,AAGTGCACGTGGGGAC,-0.09 kcal/mol
12,ATATTCACGTGGTATG,0.14 kcal/mol
13,GGATGCACGTGGTGGC,0.02 kcal/mol
14,ATGTGCACGTGCGCGG,-0.23 kcal/mol
15,CGGTTCACGTGATTTT,0.24 kcal/mol
16,GTTGTCACGTGAGTTT,0.37 kcal/mol
17,AAGTGCACGTGGTCGT,-0.12 kcal/mol
18,TGGAGCACGTGGCAAG,-0.15 kcal/mol
19,GGGTACACGTGAGTAG,0.25 kcal/mol
20,GGAAACACGTGGGATA,0.01 kcal/mol
21,TGTTCCACGTGTATGA,0.16 kcal/mol
22,GGGACCACGTGGGCTG,-0.2 kcal/mol
23,GTATACACGTGAATTG,0.31 kcal/mol
24,ATCTGCACGTGTATGG,0 kcal/mol
25,GAATCCACGTGTGTGT,0.23 kcal/mol

row,Sequence,relative binding free energy
1,TTGTTCACGTGTGTTA,0.23 kcal/mol
2,AATTGCACGTGTTTGG,0.08 kcal/mol
3,TCTTTCACGTGTTGCG,0.16 kcal/mol
4,TGTCACACGTGTTTCG,0.16 kcal/mol
5,TGTAACACGTGGAGAT,0.06 kcal/mol
6,ATGTTCACGTGGCGTA,0.03 kcal/mol
7,TGTGTCACGTGCAGGC,-0.08 kcal/mol
8,TTGAACACGTGTATGG,0.05 kcal/mol
9,TTCATCACGTGAATGG,0.32 kcal/mol
10,AGGGACACGTGAGATG,0.26 kcal/mol
11,GGGAGCACGTGGTGCT,-0.03 kcal/mol
12,TTGTTCACGTGGAAAC,0.36 kcal/mol
13,GTTGCCACGTGATATG,0.07 kcal/mol
14,GGTGTCACGTGCTATG,0.05 kcal/mol
15,TAGTCCACGTGGGGGC,-0.09 kcal/mol
16,ATGGGCACGTGAGACT,0.13 kcal/mol
17,GACTGCACGTGTGTGT,0.05 kcal/mol
18,TATTTCACGTGTCTAA,0.31 kcal/mol
19,GGCATCACGTGGAGTG,0.09 kcal/mol
20,GCGGACACGTGGTCGG,-0.02 kcal/mol
21,AGTTGCACGTGATCGT,-0.03 kcal/mol
